Test results: patent US11155542B2, “Antimicrobial compounds, their use for the treatment of mammalian infections and a new metabolic mechanism” (priority 2016, dated 2021)

Assay: Chemical stability and solubility of Meisenheimer complexes and methylated derivatives
Conditions: in particular in the presence of atmospheric oxygen

Q: With `C[C@H]1COC2(CCN(C3=NC(O)=C4CC(C(F)(F)F)=CC([N+](=O)[O-])=C4S3)CC2)O1` [Compound 5b] as the compound, how does the “Stability of 5b in solution” value read?
A: Rapid oxidation occurred in solution
